The other results are listed elsewhere or left out. At the low end of the ranking the order means little. Measured with an extract: partners may take part in the binding.

The target in the assay is T1, HNF4alpha8 (COS-7 nuclear extract) (UniProt P41235-5).
T1 sequence: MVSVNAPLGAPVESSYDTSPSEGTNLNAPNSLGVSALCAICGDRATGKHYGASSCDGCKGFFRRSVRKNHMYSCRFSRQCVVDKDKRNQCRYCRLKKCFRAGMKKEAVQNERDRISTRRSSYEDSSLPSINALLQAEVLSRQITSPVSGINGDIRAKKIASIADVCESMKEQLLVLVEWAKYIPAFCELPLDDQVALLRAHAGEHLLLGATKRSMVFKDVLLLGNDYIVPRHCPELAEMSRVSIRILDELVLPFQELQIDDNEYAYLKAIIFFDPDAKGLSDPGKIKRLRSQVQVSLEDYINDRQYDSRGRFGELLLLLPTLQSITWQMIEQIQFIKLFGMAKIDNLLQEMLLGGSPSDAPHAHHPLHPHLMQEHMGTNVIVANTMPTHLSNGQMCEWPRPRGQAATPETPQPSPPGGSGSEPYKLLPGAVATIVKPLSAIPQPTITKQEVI
Briefly: protein-binding microarray. Conditions: COS-7 nuclear extract on double-stranded Agilent 4x180k PBM; binding buffer, salt, pH and temperature not given; high values mean tight binding; double strand, one strand shown; sequences stand for … in …GCCTAGGGAGATTAGAGTATCGGTCGA
GGATATCCTGGCAGTGTGGAAAAGCTGGCT: the binding signal (log2 normalized intensity) was -1.43.

As to ACCCCTTCTTGACCTGCGTAGCCCAAAGGT, the binding signal (log2 normalized intensity) was 1.72.

Consider TCTCTTATCACCCTGAACAGTGGCTGGCCA, for which the binding signal (log2 normalized intensity) was determined as 1.18.

For the sequence TGAATACACATAATGTGCTTATCAGCAAGG, the binding signal (log2 normalized intensity) stood at 0.46.

For the sequence ATGCTGGTGTGTGATAAAACCCATGGACCT, the binding signal (log2 normalized intensity) came to 2.72.

On to GCGAATATGTCAGGCTCAGGGACCCAGCGG, for which the binding signal (log2 normalized intensity) was -1.32.

For CTGACTCAGACTGAGGATGGGCCAAGGTTC, the binding signal (log2 normalized intensity) is 2.55.

Regarding AATAATACTGACTGAGAAACCAAGATCCTA, the binding signal (log2 normalized intensity) is -1.05.

Take TTGCTGTGCACTTCTCTTTGAGTCCCAATC: the binding signal (log2 normalized intensity) turned out to be 0.0503.

Turning to TGCTCTCTCCAGGGGAGGGTGACCAGATTA, the binding signal (log2 normalized intensity) worked out at 0.096.

As for CCAGAAATCAACCTTTGATCGTTTGCATGC, the binding signal (log2 normalized intensity) worked out at 5.61.

As for GTCCAAAGGCAGTCTGGAAGTTGAATTCCT, the binding signal (log2 normalized intensity) was -1.29.

For the sequence CATTTGGGACAAAGTTCATCTGGGCTTTAG, the binding signal (log2 normalized intensity) came out at 3.75.

Turning to GGGAGCAGTGGGGACGCCTTCCCCTGCCAC, the binding signal (log2 normalized intensity) is -1.33.

As to GCTGGCCTGTCTCCTGGCCTATTGTTCTTC, the binding signal (log2 normalized intensity) is 1.17.

For the sequence ATTATTAATTTACTGAAAAGTCTACCTTTG, the binding signal (log2 normalized intensity) was found to be 0.963.

On to TGACCTTTGTCCTGGCACAACTGGATGGTG, for which the binding signal (log2 normalized intensity) amounted to 5.2.

Regarding GGATTCCCAGATGGAGTGCTCTGAACCGTG, the binding signal (log2 normalized intensity) is 1.23.

As for TTTCTGGTTCTCCAGCTAGCAAACAGCATA, the binding signal (log2 normalized intensity) is -1.21.

Turning to GCGACTTTAGGGGCCAAGGGAAAACTTCCC, the binding signal (log2 normalized intensity) was -1.38.

As for ATTGTCAATACCCTGTTATTAGTCCAAGAG, the binding signal (log2 normalized intensity) was found to be 0.619.

Consider CGTCCGTCACCCCTTTCTTTGATTAGGAAA, for which the binding signal (log2 normalized intensity) amounted to 1.07.

In the case of TCTTTCTATATTTGTAGGCAGCTAGGCAGG, the binding signal (log2 normalized intensity) came to 1.22.

As to TAAGTTTAAGTCCAGAAAAGACCAAAAAGG, the binding signal (log2 normalized intensity) is -1.28.

For CTAAGTGGCTCGACAACGATTTGGGAAATG, the binding signal (log2 normalized intensity) was -1.23.

For GAGCAGTCTTGAGCGCAAATGATCAAAGGT, the binding signal (log2 normalized intensity) was 1.14.

As to CCCCTTCTGTTTCCAGAAATCTGACCTCTG, the binding signal (log2 normalized intensity) stood at 5.06.

For the sequence GTTGAATGATGGCGAGTGTGCAATTAGAGC, the binding signal (log2 normalized intensity) is -0.888.

TTGTGTTTGTCTTAGGGGGTCTGGTTTCTA: the binding signal (log2 normalized intensity) amounted to 1.16.

Take GTTGCATGCAACCTTTGTCCTCATTGAGCC: the binding signal (log2 normalized intensity) was 5.82.

Turning to AGCTGGAGGGGGACTGGAAGGGAGAGATAA, the binding signal (log2 normalized intensity) is -1.38.

On to AAGAGGAATGCTTTGAGCCAGAATCTGTCA, for which the binding signal (log2 normalized intensity) is -0.971.

For CCAGCAAAGAGGGTCAAAGCCCAGGAGAGC, the binding signal (log2 normalized intensity) is -1.2.

In the case of AGAAGACTTTGGGGGTAGGTGGAGTGAGGG, the binding signal (log2 normalized intensity) was -1.24.

As to CAAAGGTCATTGGTATTGATAGCGCTTACT, the binding signal (log2 normalized intensity) was 3.35.

As to CGAAAAAGGAAATATCTTCCCATAAAACCT, the binding signal (log2 normalized intensity) was -1.34.

Consider TAAGGAAGGAAGGTGCTTATCAGAGCAAGA, for which the binding signal (log2 normalized intensity) is -1.25.

Consider CTGAGCCTCAGAACCATTTGTGAGGATGGG, for which the binding signal (log2 normalized intensity) was -0.788.

For the sequence CAGAGCCGCACCCAGCTTTCATCTCGGCTG, the binding signal (log2 normalized intensity) is -1.24.

Consider CTTTCATGAATAAATGACATAGTGACATTT, for which the binding signal (log2 normalized intensity) was 1.78.

With TTAAAAAAAAAAAAAACTATCAAACTAGTG, the binding signal (log2 normalized intensity) is -1.26.

Take TGAACAGAATAGAGGCCTTTGTGCTGACTA: the binding signal (log2 normalized intensity) is -1.05.

On to GGTAAACACTGAGCTTTCATCTAAGATCCT, for which the binding signal (log2 normalized intensity) was -1.32.

On to CCTCCTCCTGGGGGCTTTTGTTTAGGAAGA, for which the binding signal (log2 normalized intensity) came to 0.484.

As for GTCCAGTGGTGTCTTACCGGGATTTTGTTG, the binding signal (log2 normalized intensity) was 1.79.

As to GGTGTGCCTCCTCCATCTCCTCCACCAGCT, the binding signal (log2 normalized intensity) was -1.3.

On to TTTTTGTGCCTCTTTGGTGAATTTTATGTC, for which the binding signal (log2 normalized intensity) was found to be 1.36.

On to TCCAGGGATGTCTTTTTCTGACCCATGGGT, for which the binding signal (log2 normalized intensity) stood at 2.81.

For CCTGCACACCTGCCTTTGATCAGGGACCTT, the binding signal (log2 normalized intensity) was determined as 1.97.

On to TCAGGTCCACCAAGGTGGTGAAGATGTCCT, for which the binding signal (log2 normalized intensity) stood at 0.309.

As for GTCTATCTTAGCCATGTTCTCTAGAAACAG, the binding signal (log2 normalized intensity) is -1.24.

On to GGTTAAAGGTTATTTGCTCACCAGTGACCA, for which the binding signal (log2 normalized intensity) is 2.39.

In the case of TTCCCTCCCTGGTATGTACTTTCTTTTGGC, the binding signal (log2 normalized intensity) turned out to be 1.71.

AGTGTCCCACTTCAGGCAGGAATGCTGAAC: the binding signal (log2 normalized intensity) was 0.321.

With CGCCAGGTGGCCGAGCAGGACGCTACCCGC, the binding signal (log2 normalized intensity) was -1.29.

Consider GAAAAAGTACACACCTGCAACCTATTTCTT, for which the binding signal (log2 normalized intensity) is -1.25.

Turning to GCCTTGTGGGAGCTGTAGTACGCTCCCTGT, the binding signal (log2 normalized intensity) is -1.

Turning to AGAGGTCAGAAGTCCAAAATCAGTCTCAGT, the binding signal (log2 normalized intensity) amounted to 3.81.

For the sequence TCTAAAGTGACTTAGCAGGATTCTTGCTAC, the binding signal (log2 normalized intensity) was -1.39.

TTCTTCCTATGGGATCAAAGTGCGACAGGG: the binding signal (log2 normalized intensity) was determined as 3.89.

Turning to CCCTCACTTACATCCTCAGGTAAAGATCAA, the binding signal (log2 normalized intensity) was determined as 0.915.

Take GACCTCTCTCTCCCCAGACAGCCACTGTTT: the binding signal (log2 normalized intensity) is 2.32.

On to CAGAAGGAGGGCGGGGAGTCTCCTGGGTAA, for which the binding signal (log2 normalized intensity) is -1.37.

With CAAAGAGAAATGGTGTGGACAGCAGACAAC, the binding signal (log2 normalized intensity) was -1.25.

For GAAGGGAGGTGCCATGTCACCGCACAGGGG, the binding signal (log2 normalized intensity) was -1.5.

In the case of TGTTATCAAGTGAGAAACCACAGGAGTGCC, the binding signal (log2 normalized intensity) is -1.3.

CAGGCCTGTGTCCAAACTTCAGGATTCTTT: the binding signal (log2 normalized intensity) is -1.11.

As to GCTTACAACTCTAAGGGGGAAAGTCCACGT, the binding signal (log2 normalized intensity) came out at 4.61.

For the sequence GTCTTATCTACCTGGCTTGTTTGCAAAGCA, the binding signal (log2 normalized intensity) worked out at 0.749.

On to AGAATCTACAAGGACCAGATTCTTAAAGGG, for which the binding signal (log2 normalized intensity) was -1.27.

As to CTGAAAAATGTCAGCAAAGTGTCAAGTAGA, the binding signal (log2 normalized intensity) was -0.843.

As for GATCCCTGAACTTTGCTCCCACCCTGCAAT, the binding signal (log2 normalized intensity) turned out to be 5.45.

In the case of GGCCATTCTGATTTGATAAGATGTGTAAAA, the binding signal (log2 normalized intensity) stood at 1.22.

In the case of ATCTGCATGGACAGCACTTAGGGTTCAAAG, the binding signal (log2 normalized intensity) was found to be 2.39.

As to TATCTTACGCAACTGAAATTGCACTCTTTG, the binding signal (log2 normalized intensity) was 1.13.

Take GTTTCGTAATATTTAGGTGTTTACTTACTG: the binding signal (log2 normalized intensity) worked out at 1.37.

On to TTTGGGCCAAATATTTATGGCTTGGGTTTA, for which the binding signal (log2 normalized intensity) is 0.649.

In the case of TGAGCTAAGTCCCAAGGGATAGGCAGGAGT, the binding signal (log2 normalized intensity) is -1.28.

With TGTTTGTTCTTGCTACCTACTCATTCATAT, the binding signal (log2 normalized intensity) worked out at 0.79.

Regarding CACTAGGACATATATGAGGAAGGGTGTGTA, the binding signal (log2 normalized intensity) turned out to be 0.262.

TCAAAGGTCAGCTCTCCTTTGTCTTCTTGT: the binding signal (log2 normalized intensity) came out at 2.

Turning to GGTGAGGGATGAGGACTTTGATCAGCAATG, the binding signal (log2 normalized intensity) was 4.69.

Regarding CACCTATGTGGTCAAAACTTTGTTTGAGTT, the binding signal (log2 normalized intensity) worked out at 1.38.

As to CATTCATACATTTGCCTGAACTTTAAACTG, the binding signal (log2 normalized intensity) was determined as 4.5.

For AGTTAGCTACACGGGCCTGAAAACTGGAGG, the binding signal (log2 normalized intensity) is -1.41.

ACTCCTGATAGCTAGAGAGTTCAAGAAGGG: the binding signal (log2 normalized intensity) was -1.23.

For the sequence GAGGCTCTTATCAGCTGCAGGGATTATCAA, the binding signal (log2 normalized intensity) was -1.28.

On to AAGAAACATTCCAGACAGGAGGATTCCTGA, for which the binding signal (log2 normalized intensity) is -1.29.

Regarding GGGTCCAGGTGCTGGGATGATTCCCTTATC, the binding signal (log2 normalized intensity) turned out to be 1.3.

Turning to GAATGCAACCACACCAACATGGACTTTGTC, the binding signal (log2 normalized intensity) stood at 6.59.

For CCCTCCTTAAGACCTAGATGGAATGTTGTG, the binding signal (log2 normalized intensity) came to 1.41.

For TCCATATTGCAGACAGCATAGGAAGTGGGG, the binding signal (log2 normalized intensity) was -1.3.

Regarding AACTTTGTTTGAGTTCCAAAGTCCATGTTC, the binding signal (log2 normalized intensity) was 7.61.

The record behind these values is paper PMC10726135.
